From patent US9867372B2, “Tetrazolinone compound and use of same” (SUMITOMO CHEMICAL COMPANY, LIMITED, priority 2013, dated 2018)

How the values were obtained:
Assay in all cases: whole plant or invertebrate
[1] = system: common house mosquito (Culex pipiens pallens)
Protocol: (§1) The above test chemical solution (0.7 mL) was added to 100 mL of deionized water to adjust an active ingredient concentration to 3.5 ppm. Twenty (20) heads of last instar larvae of common house mosquito (Culex pipiens pallens) were released in the solution and the number of dead insects was counted after 8 days.
Mortality was determined by the following equation. Mortality (%)=(number of dead insects/number of test insects)×100
as §1, with “and, after one day,” for “and”, “counted.” for “counted after 8 days.”

[2] = system: cabbage moth (Plutella xylostella); conditions: 120 h
Protocol: Cabbage (cultivar: GREEN BALL) was planted in each of polyethylene cups and grown until the third true leaf or the fourth true leaf was developed. The above test chemical solution was sprayed over the cabbage at a rate of 20 mL/cup. After drying the chemical solution, the polyethylene cup having a diameter of 5.5 cm covered with a filter paper laid on the bottom, the cabbage cut out from the root was placed and 5 heads of third instar larvae of cabbage moth (Plutella xylostella) were released in the cup and the cup was covered with the lid. The cup was held at 25° C. and, after 5 days, the number of the surviving insects was counted and the mortality of insects was calculated by the following equation. Mortality (%)=(number of dead insects/number of test insects)×100

[3] = system: German cockroach (Blattella germanica); conditions: 144 h
Protocol: On each of polyethylene cups having a diameter of 5.5 cm, a filter paper having the same size was laid. The above test chemical solution (0.7 ml) was dropped on the filter paper and 30 mg of sucrose was placed as bait. Two (2) heads of male adult German cockroach (Blattella germanica) were released in the polyethylene cup and the cup was covered with the lid. After 6 days, the life or death of German cockroach was investigated and mortality was determined by the following equation. Mortality (%)=(number of dead insects/number of test insects)×100

COc1ccccc1-c1cccc(OCc2c(C)cccc2-n2nnn(C)c2=O)n1 [compound 19]
mortality at 3.5 ppm ([1]; 24 h): 100%

Cc1cccc(-n2nnn(C)c2=O)c1COc1cccc(-c2ccncc2)n1 [compound 20]
mortality at 3.5 ppm ([1]; 24 h): 100%

Cc1cccc(-n2nnn(C)c2=O)c1COc1cccc(-c2ccc(Br)cc2)n1 [compound 23]
mortality at 3.5 ppm ([1]; 192 h): 100%

Cc1cccc(-n2nnn(C)c2=O)c1COc1cc(-c2ccccc2)ncn1 [compound 25]
mortality at 500 ppm [2]: ≥ 80%

Cc1cccc(-n2nnn(C)c2=O)c1COc1cc(-c2ccc(C#N)cc2)ncn1 [compound 28]
mortality at 3.5 ppm ([1]; 24 h): 100%

COc1ccc(-c2ccnc(OCc3c(C)cccc3-n3nnn(C)c3=O)c2)cc1 [compound 29]
mortality at 3.5 ppm ([1]; 24 h): 100%

COc1ccccc1-c1cccc(OCc2c(C)cccc2-n2nnn(C)c2=O)c1 [compound 52]
mortality at 3.5 ppm ([1]; 24 h): 100%
mortality at 500 ppm [2]: ≥ 80%

Cc1cccc(-n2nnn(C)c2=O)c1COc1cccc(-c2ccc3c(c2)OCO3)c1 [compound 60]
mortality at 3.5 ppm ([1]; 192 h): 100%

Cn1nnn(-c2cccc(C3CC3)c2COc2cccc(-c3ccc(F)cc3)n2)c1=O [compound 66]
mortality at 3.5 ppm ([1]; 192 h): 100%

COc1ccc(-c2cccc(OCc3c(Cl)cccc3-n3nnn(C)c3=O)n2)cc1 [compound 67]
mortality at 500 ppm [3]: 100%

Cc1cccc(-n2nnn(C)c2=O)c1COc1cccc(-c2ccc(OC(C)C)cc2)n1 [compound 73]
mortality at 3.5 ppm ([1]; 192 h): 100%

COc1ccc(-c2cc(OCc3c(C)cccc3-n3nnn(C)c3=O)ccc2C)cc1 [compound 120]
mortality at 500 ppm [2]: ≥ 80%
